Test results taken from PubChem BioAssay AID1963576 (National Center for Advancing Translational Sciences (NCATS), 2024).
Out of some 46,000 compounds screened, about 60 (0.1%) were called active. Inconclusive results, whose numbers are uncertain, are shown with a selection of clear calls. The call rests on the fitted dose curve; in most records, active means well fitted inhibition curve with a large enough effect; inconclusive means small, poorly fitted or top-dose-only effect; inactive means no such curve, though single readings can be large or run the other way. Potencies of inconclusive entries are doubtful fits and often do not repeat.

Experiment: Primary qHTS assay for Inhibitors of ovarian cancer metastasis using an organotypic tumor microenvironment (TME) model. Further: nearly all actives have a fitted effect of over 65% in size.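 On Potency: count of GFP cancer cells still attached after washing and fixation.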
Details: SKOV3ip1-GFP adhesion/invasion on 3D omental model, fluorescence; series mostly up to 45.8 µM
How it was run: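 qHTS, 4-pt dose (0.36-46 umol/L); SKOV3ip1-GFP, 1,200 cells/well, no FBS; primary omental fibroblast/mesothelial co-culture 48 h pre-grown; 2 h RT + 16 h 37 C; PBS wash, 4% PFA; GFP count 488/509 nm.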
Potency means the concentration at half of the fitted maximal effect; tags describe the fitted curve by direction and shape.

Potency, active:
COc1cc(Nc2nc(-c3ccc(OC)c(OC)c3)nc3ccccc23)cc(OC)c1 10 µM

Potency, inactive:
CCCNC(=O)C1CCN(Cc2cc3ccccc3n2Cc2ccccc2)CC1
O=C(NOCC1CC1)c1ccc(F)c(F)c1Nc1ccc(I)cc1Cl
Fc1ccc(C(Nc2ccccc2Cl)c2nnc(-c3ccccc3Cl)o2)cc1 (stereo not drawn)
CCOC(=O)Cc1ccc(NC(=O)n2ncc3cc(Cl)ccc32)cc1
Cc1ccccc1OCc1cc(=O)n2c(-c3ccccc3)csc2n1
Cc1ccc(CNc2oc(-c3ccc(COc4ccc(Cl)cc4)o3)nc2C#N)cc1
Cc1cccc(S(=O)(=O)c2cn(Cc3ccccc3)c3cc(N4CCOCC4)c(F)cc3c2=O)c1
Cc1cccc(N2CCN(C(=O)C3CCCN(S(=O)(=O)c4ccc5c(c4)oc(=O)n5C)C3)CC2)c1C (stereo not drawn)
O=C(NCCc1ccc(Cl)cc1)c1cc2c(s1)-c1ccccc1OC2
CC(C)(C)c1ccc(C(=O)Nc2nnc3n2CCS3)cc1
CCN(C(=O)CSc1nnc(-c2ccc(Cl)cc2)o1)c1ccccc1
COC(=O)c1ccc(CSc2nc3c([nH]c4ccccc43)c(=O)n2-c2cccc(OC)c2)o1
Oc1c(C(c2ccc(Cl)cc2Cl)N2CCOCC2)sc2nc(-c3ccco3)nn12 (stereo not drawn)
CNC(=O)c1cc2c(n(-c3ccc(C)cc3)c1=O)CC(C)(C)CC2=O
Clc1cccc(N2CCN(c3ncnc4c3nc3n4CCCCC3)CC2)c1
Cc1ccc(S(=O)(=O)CCC(=O)N2CCN(c3nc4c(C)c(C)ccc4s3)CC2)cc1

Potency, inconclusive:
COc1ccc(-c2cc(C(=O)NCCc3ccc(OC)c(OC)c3)c3ccccc3n2)cc1 31.6 µM [inhibitor, single point]
CCCN(C(=O)COc1cc(=O)n(CC)c2ccccc12)c1ccc(C(C)C)cc1 25.1 µM [inhibitor, single point]
CCc1ccc(CNC(=O)C2CCCN(c3nnc(C)c4c(C)n(-c5ccc(OC)cc5)nc34)C2)cc1 (stereo not drawn) 25.1 µM [inhibitor, single point]
Cc1cccc(C)c1NC(=O)CSc1ncc2c(n1)-c1ccc(Cl)cc1N(Cc1ccccc1)S2(=O)=O 11.2 µM [inhibitor, partial curve, poor fit]
CSc1ccc(CCNC(=O)c2ccc3c(c2)nc2n3CCCCC2)cc1 12.6 µM [inhibitor, partial curve, poor fit]
CNS(=O)(=O)c1cc(-c2nn3c(C)nnc3c3ccccc23)ccc1C 22.4 µM [inhibitor, single point]
CCC1CCCCN1CCCNC(=O)c1[nH]c2ccccc2c1Sc1ccc(Cl)cc1 (stereo not drawn) 20 µM [inhibitor, single point]
COc1ccc(OC)c(NC(=O)c2c(N3CCCC3=O)c3cc(OC)ccc3n2C)c1 35.5 µM [inhibitor, single point]
Cc1ccc(C)c(NC(=O)C2CCCN(c3nc4ccccc4s3)C2)c1 (stereo not drawn) 31.6 µM [inhibitor, single point]
COc1ccccc1Cn1cc(C(=O)c2ccc(Cl)cc2)c(=O)c2ccccc21 35.5 µM [inhibitor, single point]
Cc1ccc(C)c(NC(=O)Cn2nnc(C(=O)NCc3ccccc3Cl)c2N)c1 35.5 µM [inhibitor, single point]
CC(C)c1cc(-c2nc(-c3ccc(Cl)cc3)no2)n[nH]1 15.8 µM [inhibitor, single point]
COc1ccccc1Nc1c2c(nc3ccc(NC(=O)c4ccc(N(C)C)cc4)cc13)CCCC2 11.2 µM [inhibitor, partial curve]
Cc1oc2ccc(O)c(CN3CCCCCC3)c2c1C(=O)Nc1cccc(C(F)(F)F)c1 31.6 µM [inhibitor, single point]
COc1ccc(N2CCN(CC(O)COc3c(OC)cccc3OC)CC2)cc1 (stereo not drawn) 25.1 µM [inhibitor, single point]
CCCCc1nn2c(=O)cc(COC(=O)CNC(=O)COc3ccc(C)cc3)nc2s1 35.5 µM [inhibitor, single point]
CCOc1ccc(/C=C/c2nc(C#N)c(N(C)C)o2)cc1 14.1 µM [inhibitor, partial curve, poor fit]
CCCCN1C(=O)C(O)(c2c(C)[nH]c3ccccc23)c2cc(Br)ccc21 (stereo not drawn) 35.5 µM [inhibitor, single point]
COc1ccc(-c2[nH]c(-c3ccccc3)nc2SCC(=O)NC2CCCC2)cc1 35.5 µM [inhibitor, single point]
Cc1cc(N2CCCCC2)nc2ccc(NC(=O)CCC(=O)N3CCN(c4cccc(Cl)c4)CC3)cc12 35.5 µM [inhibitor, single point]
Cc1ccc(C)c(N2CCN(CCCNC(=O)Cn3c(-c4cccs4)cc4ccccc43)CC2)c1 35.5 µM [inhibitor, single point]
Cc1cc(OCCn2c(C3CC(=O)N(Cc4ccc(F)cc4)C3)nc3ccccc32)ccc1Cl (stereo not drawn) 31.6 µM [inhibitor, single point]
COc1ccc(-c2cc(C(F)(F)F)nc(S(=O)(=O)CCCC(=O)Nc3ccccc3C(F)(F)F)n2)cc1OC 5.01 µM [inhibitor, full curve, poor fit]
Cc1ccc(C(=O)c2cn(Cc3ccc(F)cc3)c3nc(C)ccc3c2=O)cc1 35.5 µM [inhibitor, single point]
CCc1ccc(NC(=O)Cn2c(=O)c(-c3ccccc3NC(C)=O)nc3ccccc32)cc1 15.8 µM [inhibitor, single point]
CC(=O)c1ccc(C(=O)N(CCCN(C)C)c2nc3c(C)c(C)ccc3s2)cc1 35.5 µM [inhibitor, single point]
C[C@H](NCc1ccc(OCc2cccc(F)c2)cc1)C(N)=O 37.2 µM [inhibitor, single point]
CCOc1ccccc1NC(=O)C(Cc1ccccc1)NS(=O)(=O)c1ccc(Br)s1 (stereo not drawn) 20 µM [inhibitor, single point]
COc1ccc(CNS(=O)(=O)c2cc(C(=O)Nc3cc(Cl)cc(Cl)c3)ccc2F)cc1 35.5 µM [inhibitor, single point]
CCCCN1C(=O)c2[nH]nc(-c3ccccc3O)c2C1c1cccc(OCc2ccccc2)c1 (stereo not drawn) 25.1 µM [inhibitor, single point]
CCc1ccc(C2c3c(-c4ccccc4O)n[nH]c3C(=O)N2Cc2ccncc2)cc1 (stereo not drawn) 5.01 µM [inhibitor, full curve, poor fit]
Cc1ccc(Cl)cc1N1CCN(C(=O)c2cnc(N3CCOCC3)c3ccccc23)CC1 35.5 µM [inhibitor, single point]
CCOCCc1nn2c(=O)cc(COC(=O)CNC(=O)c3ccc(C(C)(C)C)cc3)nc2s1 35.5 µM [inhibitor, single point]
COc1ccccc1CNS(=O)(=O)c1cc(C(=O)Nc2cccc(C(F)(F)F)c2)ccc1F 12.6 µM [inhibitor, single point]
CCOc1ccc(-c2nc(CSCC(=O)N3CCN(c4cccc(C(F)(F)F)c4)CC3)c(C)o2)cc1 35.5 µM [inhibitor, single point]
COc1ccccc1CCNC(=O)C1CCN(c2nnc(C)c3c(C)n(-c4ccc(C)cc4)nc23)CC1 35.5 µM [inhibitor, partial curve, poor fit]
COc1ccc(C(CC(=O)Nc2ccc(Br)cn2)N2Cc3ccccc3C2=O)cc1 (stereo not drawn) 7.08 µM [inhibitor, partial curve, poor fit]
Oc1ccc(NCc2ccc(OCc3ccccc3)cc2)cc1 35.5 µM [inhibitor, single point]
CCOc1ccc(NC(=O)CCc2c(C)nc3cc(-c4ccc(Cl)cc4)nn3c2C)cc1 10 µM [inhibitor, single point]
CN(C)CCN(Cc1ccco1)C(=O)c1oc2ccccc2c1NC(=O)c1cccc(F)c1 35.5 µM [inhibitor, single point]
CCNC(=O)c1c(NC(=O)c2nc(S(=O)(=O)CC)ncc2Cl)sc2c1CCCC2 3.16 µM [inhibitor, full curve, poor fit]
COc1ccc(CNc2nc(SCc3ccccc3Cl)nc3ccccc23)cc1 22.4 µM [inhibitor, single point]
O=C(Cn1cnc2c(nc3n2CCCCC3)c1=O)Nc1ccc(F)c(Cl)c1 17.8 µM [inhibitor, single point]
Cc1cccc(C(=O)N2CCc3cc(CNS(=O)(=O)c4ccc(F)c(Cl)c4)ccc32)c1 3.55 µM [inhibitor, full curve]
CC(C)c1ccc2occ(CC(=O)N(Cc3ccc(F)cc3)C3CCS(=O)(=O)C3)c2c1 (stereo not drawn) 35.5 µM [inhibitor, single point]
COc1cccc(NC(=O)Cn2cc(C(=O)c3ccco3)c3ccccc32)c1 31.6 µM [inhibitor, single point]
